Article PMC9911399, “Two distinct binding modes provide the RNA-binding protein RbFox with extraordinary sequence specificity”
Positions count from the first letter of the chain named. Some of the results follow.

B1: CGCGUGG (DNA:RNA)
RNA: GGGAGACCGGAAUUCAGAUUGUCCCGCGUGGUUAAAUCCCGUCGUAGCCACCA
DNA 1: CAATCTGAATTCCGGTCTCCC
DNA 2: TGGTGGCTACGACGGGATT
B2: GCCGUUU (DNA:RNA)
RNA: B1 RNA with C25G, G26C, G30U, G31U
DNA 1: CAATCTGAATTCCGGTCTCCC
DNA 2: TGGTGGCTACGACGGGATT
B3: GGGGAUU (DNA:RNA)
RNA: B1 RNA with C25G, C27G, U29A, G30U, G31U
DNA 1: CAATCTGAATTCCGGTCTCCC
DNA 2: TGGTGGCTACGACGGGATT
B4: UAAGUGC (DNA:RNA)
RNA: B1 RNA with C25U, G26A, C27A, G31C
DNA 1: CAATCTGAATTCCGGTCTCCC
DNA 2: TGGTGGCTACGACGGGATT
B5: ACGCUAU (DNA:RNA)
RNA: B1 RNA with C25A, G26C, C27G, G28C, G30A, G31U
DNA 1: CAATCTGAATTCCGGTCTCCC
DNA 2: TGGTGGCTACGACGGGATT
B6: CUUGAAC (DNA:RNA)
RNA: B1 RNA with G26U, C27U, U29A, G30A, G31C
DNA 1: CAATCTGAATTCCGGTCTCCC
DNA 2: TGGTGGCTACGACGGGATT
B7: UGUUAUA (DNA:RNA)
RNA: B1 RNA with C25U, C27U, G28U, U29A, G30U, G31A
DNA 1: CAATCTGAATTCCGGTCTCCC
DNA 2: TGGTGGCTACGACGGGATT
B8: CCGAAAC (DNA:RNA)
RNA: B1 RNA with G26C, C27G, G28A, U29A, G30A, G31C
DNA 1: CAATCTGAATTCCGGTCTCCC
DNA 2: TGGTGGCTACGACGGGATT
B9: GGACCUA (DNA:RNA)
RNA: B1 RNA with C25G, C27A, G28C, U29C, G30U, G31A
DNA 1: CAATCTGAATTCCGGTCTCCC
DNA 2: TGGTGGCTACGACGGGATT

target: T1, RBFOX1 RRM (Homo sapiens, UniProt Q9NWB1 109-208); test: EMSA; HiTS-Eq, 1 nM pool, 10 min; buffer printed only for the single-RNA assays: 10 mM Tris pH 7.5, 150 mM NaCl, 3.4 mM EDTA, 0.001% NP-40, 30 C; conditions: tags: His6 N-terminal (pET28a); label: 5' 32P
T1 sequence: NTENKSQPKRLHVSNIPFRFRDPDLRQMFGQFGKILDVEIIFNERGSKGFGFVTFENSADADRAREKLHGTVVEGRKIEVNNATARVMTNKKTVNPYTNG
Summary of the method: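 Relative association constants, normalised to the cognate motif, were derived by comparing read counts of each RNA species with those of the control reaction. The RNA sequenced was the free fraction, separated by 8% native PAGE after a 10 min equilibration in 50 µL of 1 nM 5′-radiolabelled RNA (7 randomized nucleotides) with increasing concentrations of purified wild-type or mutant RbFox RRM.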

Binder	binding signal
B1	0.00951 KA relative to UGCAUGU
B2	0.0136 KA relative to UGCAUGU
B3	0.038 KA relative to UGCAUGU
B4	0.0197 KA relative to UGCAUGU
B5	0.00415 KA relative to UGCAUGU
B6	0.0099 KA relative to UGCAUGU
B7	0.00576 KA relative to UGCAUGU
B8	0.00527 KA relative to UGCAUGU
B9	0.0035 KA relative to UGCAUGU
